# Source: article PMC4336329 (PLoS ONE, 2015)
# Hit rate of the full screen: of about 310,000 compounds, about 2,200 (0.71%) showed an effect of 50% or more. Effects have a minus sign here. The list shows a part of the results.
# Biological target: human ether-à-go-go-related gene (hERG) potassium channel (human, UniProt Q12809)
# Experiment: primary screen, population patch clamp on CHO cells stably expressing hERG
# Sequence of human ether-à-go-go-related gene (hERG) potassium channel (Q12809 whole entry, looked up): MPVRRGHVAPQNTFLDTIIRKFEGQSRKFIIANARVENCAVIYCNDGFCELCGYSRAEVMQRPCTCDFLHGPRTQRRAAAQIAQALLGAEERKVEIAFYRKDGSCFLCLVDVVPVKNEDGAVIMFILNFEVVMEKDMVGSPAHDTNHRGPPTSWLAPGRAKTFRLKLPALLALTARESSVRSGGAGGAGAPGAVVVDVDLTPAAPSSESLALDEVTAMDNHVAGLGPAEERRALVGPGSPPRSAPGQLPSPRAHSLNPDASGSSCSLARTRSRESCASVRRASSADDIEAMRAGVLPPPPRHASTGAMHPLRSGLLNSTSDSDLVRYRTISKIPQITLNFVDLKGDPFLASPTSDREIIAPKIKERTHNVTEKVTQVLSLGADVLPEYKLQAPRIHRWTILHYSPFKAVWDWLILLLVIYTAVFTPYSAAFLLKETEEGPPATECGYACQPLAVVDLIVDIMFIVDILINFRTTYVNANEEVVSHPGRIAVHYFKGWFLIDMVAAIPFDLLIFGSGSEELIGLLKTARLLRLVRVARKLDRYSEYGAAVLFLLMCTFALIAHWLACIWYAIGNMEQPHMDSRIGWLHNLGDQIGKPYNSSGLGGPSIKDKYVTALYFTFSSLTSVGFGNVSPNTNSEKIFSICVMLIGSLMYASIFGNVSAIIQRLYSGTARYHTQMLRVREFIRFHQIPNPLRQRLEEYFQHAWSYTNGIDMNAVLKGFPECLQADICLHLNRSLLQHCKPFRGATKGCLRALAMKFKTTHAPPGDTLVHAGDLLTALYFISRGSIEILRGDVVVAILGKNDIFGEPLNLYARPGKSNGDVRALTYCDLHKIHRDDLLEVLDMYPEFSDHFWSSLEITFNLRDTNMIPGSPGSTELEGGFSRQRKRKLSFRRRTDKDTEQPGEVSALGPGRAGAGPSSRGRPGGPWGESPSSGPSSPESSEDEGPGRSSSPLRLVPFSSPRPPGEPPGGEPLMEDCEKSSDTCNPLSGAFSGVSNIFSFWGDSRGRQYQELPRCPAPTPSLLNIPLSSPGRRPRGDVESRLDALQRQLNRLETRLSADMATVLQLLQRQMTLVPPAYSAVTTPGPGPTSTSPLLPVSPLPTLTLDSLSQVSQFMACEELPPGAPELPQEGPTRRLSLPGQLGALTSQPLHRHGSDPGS
row,Structure (SMILES),"hERG current change (%, negative = inhibition) at 1uM"
1,CCN1CCN(Cc2cc(=O)oc3ccc(C)cc23)CC1,11.9%
2,CCC(=O)N1CCc2cc(S(=O)(=O)CCC(=O)NCc3ccccc3OC)ccc21,13.8%
3,COc1ccc(CC2(CO)CCN(C(C)Cc3ccc(Cl)cc3)CC2)cc1 (stereo not shown),-80%
4,CC(NC(=O)c1ccco1)C(=O)N1CCN(c2cccc(Cl)c2)CC1 (stereo not shown),23.6%
5,COc1ccc(CP(=O)(c2ccccc2)c2ccccc2)cc1,10.8%
6,CCn1cc(CN2CCC(C(=O)Nc3ccc(Oc4ccccc4F)cc3)CC2)c(C)n1,-26.7%
7,CCN(Cc1ccccc1)Cc1c(C)[nH]c2c(C)c(C)ccc2c1=O,-10.8%
8,CCC(=O)N1N=C2C3CCN(CC3)C2C1c1ccccc1 (stereo not shown),-12.3%
9,O=C(CN1C(=O)C2C3CCC(C3)C2C1=O)NCc1ccco1 (stereo not shown),15%
10,COc1cc(/C=C2\CCn3c2nc2cc(C(=O)O)ccc2c3=O)ccc1OC(F)F,14.5%
11,O=C(c1ccccc1)c1ccc2ccccc2n1,6.46%
12,O=C1C2N=NN(CC(=O)N3N=C(c4ccccc4)CC3c3ccc([N+](=O)[O-])cc3)C2C(=O)N1c1ccccc1 (stereo not shown),8.18%
13,COc1ccc(C2(c3ccc(OC)cc3)NC(=O)N(CC(=O)Nc3cc(C)ccc3OC)C2=O)cc1,8.47%
14,COc1cc(OC)cc(-n2nnnc2SCC(=O)NCc2cccs2)c1,7.67%
15,Oc1nc(Nc2ccc(F)cc2)sc1/C=C1\C=Nc2ccccc21,8.9%
16,O=C(O)COCC(=O)NCc1csc2ccccc12,8.69%
17,CN(C)S(=O)(=O)c1ccc(C(=O)Nc2nnc(Cc3ccccc3)s2)cc1,6.04%
18,CCC(Sc1nc(=O)cc(N)n1-c1cccc(C)c1)C(=O)Nc1cc(C)on1 (stereo not shown),-0.277%
19,O=C(c1ccc(Br)o1)N1CCN(Cc2ccc3c(c2)OCO3)CC1,-4.49%
20,CC(=O)c1ccc(N2CCN(c3ccc(S(=O)(=O)NCCN(C)C)cc3[N+](=O)[O-])CC2)cc1,-4.69%
21,O=C(CN1C(=O)C2C3C=CC(C3)C2C1=O)OCC(=O)c1ccc([N+](=O)[O-])cc1 (stereo not shown),8.41%
22,Cc1ccc2nc(-c3ccc(NC(=S)NC(=O)CC(C)C)cc3)sc2c1,6.59%

row,Structure (SMILES),"hERG current change (%, negative = inhibition) at 1uM"
1,CN(C)C(=O)OCc1c(-c2ccccc2)ncc2ccccc12,11.3%
2,CCOc1cc(C)c(S(=O)(=O)Nc2ccc3cn[nH]c3c2)cc1C,19.3%
3,CC(C)OC(=O)CCCCCN1C(=O)CSC1=S,6.02%
4,CCCc1cc(=O)oc2cc(OCC(=O)N3CCN(Cc4ccc5c(c4)OCO5)CC3)ccc12,4.76%
5,O=C(c1cccs1)N1CCN(C/C=C/c2ccccc2)CC1,-16.9%
6,CCc1nc(NCC2CCCO2)c(C#N)c2c1COC(C)(C)C2 (stereo not shown),5.51%
7,COC(=O)c1c(NC(C)=O)sc(Cc2ccccc2)c1C,10.7%
8,COc1ccc(C(=O)O/N=C(\N)c2ccccc2)cc1OC,12.3%
9,O=C(C1CCCN(S(=O)(=O)c2ccc([N+](=O)[O-])cc2)C1)N1CCCCC1 (stereo not shown),-23.1%
10,NC(=O)c1nsc(C(=O)N(c2cccc(F)c2)C(C(=O)NCc2ccccc2)c2ccc(O)cc2)c1N (stereo not shown),4.16%
11,CCC(=O)N1CCc2cc(Br)cc(S(=O)(=O)N3CCN(C(=O)c4ccco4)CC3)c21,6.57%
12,CC(C)(C)C(=O)N1CCC(O)(CS(=O)(=O)c2ccc(Cl)c(Cl)c2)CC1,14.1%
13,C=C1CCC2[C@](C)(CO[C@@H]3O[C@H](CO)[C@@H](O)[C@H](O)[C@H]3O)CCC[C@@]2(C)[C@@H]1CCC1=CCOC1=O (stereo partly shown),15.4%
14,Cc1cccc(C(=O)Nc2ccnc(-c3ccncc3)n2)c1,-7.53%
15,N#CC1=C(N)NC(SCC(=O)Nc2ccccc2)=C(C#N)C12CCCCC2,3.48%
16,CCOc1cc2[nH]c(=S)n(C3CC3)c(=O)c2cc1OCC,10.2%
17,COc1cc(NC(=O)c2ccc([N+](=O)[O-])cc2)ccc1NC(=O)C(C)C,6.67%
18,COc1ccccc1C(CNC(=O)c1cccc(S(=O)(=O)Nc2ccc(F)cc2)c1)N(C)C (stereo not shown),3.93%
19,Cc1cc(C)cc(NC(=O)NCc2c(-c3ccccc3)noc2C)c1,12.5%
20,O=C(CCN1CCN(c2ccccc2)CC1)N/N=C/c1ccccc1OC(F)F,-2.32%
21,Fc1ccc(NC(=S)NCCc2ccccn2)cc1,8.99%
22,COc1cccc(C2CN(c3ccc(F)cc3F)N=C2c2cccs2)c1OC (stereo not shown),19.1%

row,Structure (SMILES),"hERG current change (%, negative = inhibition) at 1uM"
1,COc1ccccc1CN1C(=O)CN(C2CCCCCC2)C(=O)C1c1ccc(F)cc1 (stereo not shown),-15.4%
2,O=C(c1ccco1)N1CCN(c2c(-c3ccccc3)c3cc(Cl)ccc3[nH]c2=O)CC1,2.61%
3,COc1cccc(-n2nnnc2SCC(=O)NCc2ccco2)c1,1.76%
4,CC1Cc2ccccc2N1C(=O)C12CCC(C)(C(=O)C1)C2(C)C (stereo not shown),12%
5,Cc1cc(C(F)F)n2nc(C(=O)Nc3ccc(F)cc3F)nc2n1,4.36%
6,CCc1ccc(NC(=O)c2cc(C)no2)cc1,-11.4%
7,CCOc1ccc(-c2c(=O)n(OCc3ccccc3Br)c3ccccc3[n+]2[O-])c(OCC)c1,9.85%
8,COCCCn1c2nc3ccccc3nc2c2c(=O)n(CC3CCCO3)cnc21 (stereo not shown),-20.5%
9,CSc1cccc(NC(=O)c2nnn(CC(=O)Nc3cc(C)cc(C)c3)c2N)c1,19.2%
10,Cc1cc(C)cc(NC(=O)c2cccc(NC3=NC4CS(=O)(=O)CC4S3)c2)c1 (stereo not shown),18.7%
11,COc1ccc(SCCCn2c(=O)c3c(ncn3C)n(C)c2=O)cc1,-0.685%
12,CN1C(=O)c2ccccc2N(C)C1c1cccc(O)c1 (stereo not shown),11.4%
13,O=C(O)c1ccc(N2C(=O)CCCC2=O)cc1,11.6%
14,CCCc1cc(-c2[nH]ncc2-c2ccc(C(=O)OCC)o2)c(O)cc1O,10.3%
15,CCCN1CCN(C(=O)c2ccc(CS(=O)c3ccc(Cl)cc3)o2)CC1 (stereo not shown),4.79%
16,C/C(=N\NC(=O)c1c(Cl)cnn1C)c1ccc(NC(=O)c2ccc(Br)o2)cc1,3.29%
17,N#Cc1c(N)nc(SCc2ccccc2)c(C#N)c1-c1ccco1,-2.7%
18,COCCCNC(=O)/C(C#N)=C1\N=C(NC(=O)c2cccs2)c2ccccc21,4.63%
19,CCN(CC)C(=O)COC(=O)c1cc(-c2ccc(OC)cc2)nc2ccccc12,7.92%
20,CC(=O)N1CCN(S(=O)(=O)c2ccc(C)cc2)C1c1ccc(N(C)C)cc1 (stereo not shown),4%
21,O=Cc1c(N2CCN(c3ccccc3)CC2)nc2ccccn2c1=O,2.26%
22,COc1ccc(S(=O)(=O)N[C@H](C(=O)N2CC[C@@]3(O)CCCC[C@H]3C2)c2ccccc2)cc1,-2.39%

row,Structure (SMILES),"hERG current change (%, negative = inhibition) at 1uM"
1,CC(=O)N1c2ccc(S(=O)(=O)NCC3CCC(C(=O)Nc4ncccc4C)CC3)cc2CC1C (stereo not shown),-6.52%
2,CN1c2cccc3cccc(c23)N(C)C1c1cccs1,7.57%
3,COc1ccccc1N1CCN(C(=O)Nc2ccc(F)c(Cl)c2)CC1,8.22%
4,CCOC(=O)Nc1nnc(CCc2ccccc2)s1,-2.65%
5,COc1ccc(S(=O)(=O)N2CCN(C(=O)c3cccs3)CC2)cc1,-8.69%
6,CC1=C(C(N)=O)C(c2cccs2)n2ncnc2N1 (stereo not shown),6.48%
7,NNc1nc(Nc2ccc([N+](=O)[O-])cc2)nc(N2CCCCCC2)n1,21.7%
8,Cc1ccc(C)c(Oc2nnnn2-c2ccccc2)c1,7.58%
9,COc1ccc(CC(=O)NC(CC(=O)O)c2cccc([N+](=O)[O-])c2)cc1 (stereo not shown),3.56%
10,Cc1ccc(OCc2cc(C(=O)N3CCN(C4CCCCC4)CC3)no2)cc1C,11.7%
11,O=C1[C@H]2[C@@H](c3ccc(F)cc3)N3C(=O)N(c4cccc(Cl)c4)C(=O)[C@@]3(Cc3ccccc3)[C@H]2C(=O)N1C1CCCCC1,10.9%
12,O=C(Nc1ccccc1F)C1CCCN(S(=O)(=O)c2ccc(-n3cnnn3)cc2)C1 (stereo not shown),4.41%
13,O=C(CSCc1ccccc1Br)N/N=C/c1ccccc1C(=O)O,18.4%
14,Cc1ccc(CN2CCC(=O)N2)cc1,18.5%
15,O=C(COC(=O)/C=C/c1cccc(Cl)c1)NC1CCCC1,10.1%
16,COc1ccc(CCNC(=O)C2CC(=O)N(CCc3ccccc3)C2)cc1OC (stereo not shown),17.2%
17,Cc1ccsc1C(=O)Nc1cccc(-n2cnnn2)c1,5.88%
18,CC(=O)/C(N=Nc1ccc(-n2ccc(C(F)(F)F)n2)cc1)=C(\C)O,9.6%
19,O=C(Nc1ccccc1C(=O)Nc1nnc(C(F)(F)F)s1)c1ccccc1,11%
